# Experimental data published in patent US9975852B2, “Quinoline sulfonyl derivatives and uses thereof” (Health Sciences North Research Institute, priority 2013, dated 2018).
# Legend:
# U87MG brain cancer cells = assay: Clonogenic assay, U87MG brain cancer cells; format: cell-based; conditions: in vitro
# Method: (§1) The clonogenic assay was carried out as described in Santi and Lee (2011).^11
# MCF10A non-cancer cells [1] = system: MCF10A non-cancer cells
# Method: as §1
# [2] = system: breast cancer cell lines vs matching non-cancer breast epithelial cell lines; assay: Cancer versus non-cancer selectivity, in vitro breast model; format: cell-based, human; conditions: ratio cancer vs non-cancer line
# Method: Antiproliferative effects were determined by a sulforhodamine B (SRB) based protocol. For a typical screening experiment, 5,000-10,000 cells were inoculated into 100 μl medium per well of a 96-well microtiter plate as described previously. Briefly, after the inoculation, the microtiter plate was incubated at 37° C., 5% CO2, 95% air and 100% relative humidity for 24 h, prior to addition of experimental drugs. Some of the sample wells were fixed with 25 μl of 50% trichloroacetic acid (TCA) as a control of the cell population for each cell line at the time of drug addition (Tz). An aliquot of the frozen stock was thawed and diluted to the desired final maximum test-concentration with complete medium. […] The cells “stained” with SRB were solubilized with 10 mM trizma base, and the absorbance was read on an automated plate reader at a wavelength of 515-564 nm. The relative growth rate (%) was calculated for each of the compound concentrations according to the following formula: (Ti−Tz)/(C−Tz)×100 In the formula, time zero (Tz), control growth (C), and OD for different concentration of tested compounds (Ti). […] Values were calculated for each of these parameters if the level of activity was reached. However, if the effect was not reached or was exceeded, the value for that parameter was expressed as greater or less than the maximum or minimum concentration tested. […]
# [3] = system: proteasome activity in 184B5 non-cancer cells; assay: Proteasome activity in 184B5 non-cancer cells; format: cell-based, human; conditions: 1 μM VR-23; compared to MCF7 cancer cells
# Method: Exponentially growing HeLa S3 cells were plated on 96-well plates. After overnight incubation, the cells were treated with different concentrations of drugs for 6 hours or left untreated (control). At the end of 6 hours, proteasomes were extracted in 0.5% NP40 buffer, and equal amounts of samples were incubated with 25 μM of fluorogenic substrates purchased from Boston Biochem (Cambridge Mass.). (LRR-specific for trypsin-like activity, LLE-specific for caspase-like activity and SUVY-specific for chymotrypsin like activity) in black-bottom 96-well plates at 37° C. Fluorescence was monitored every 5 min at the wavelength of 360 nm (excitation) and 480 nm (emission). Chymotrypsin activity was also determined by a kit-based method (similar to described above) purchased from Caymen Biochem (Ann Arbor, Mich.), using a fluorogenic substrate specific for chymotrypsin activity.
# MCF7 cells = assay: Microscopy of microtubule organization, MCF7 cells; format: cell-based, human; conditions: VR-23 10 μM, asynchronous MCF7
# Source text: All immunocytochemistry experiments were visualized by confocal microscopy using a Zeiss 510 Meta laser scanning microscope (Carl Zeiss) equipped with a 63× objective lens, unless otherwise specified herein. Three lasers were utilized for excitation with the following band pass filter settings used for detection: Argon 488 nm (band pass 505-530), HeNe 543 nm (long pass 560) and 633 nm (long pass 650). All images were captured and analyzed using LSM 510 software included with the microscope (LSM Image Examiner™, Carl Zeiss).
# MCF7 cells treated with VR-23 contained multiple microtubule organization centers (FIG. 6). Asynchronous MCF7 cells were incubated in the absence (Sham control) or presence of VR-23 (10 μM).
# HeLa S3 cells = assay: Flow cytometry, cell death and cell cycle of synchronized HeLa S3 cells; format: cell-based
# Method: The synchronization at the G1/S border (more accurately at the beginning of S phase) was achieved by double thymidine block (DT). Briefly, exponentially growing cells are treated with 2.0 mM thymidine for 18 hours, followed by incubation for 11 hours in drug-free complete medium, by which time most cells are at mid-late G1 phase. The cells are then incubated for another 14 hours in 2.0 mM thymidine to arrest them at the G1/S border. To arrest cells at the G2/M phase, cells were maintained for 18 hours in complete medium containing nocodazole (50 ng/ml). Both these synchronization are reversible.
# Under the experimental conditions, some of the cells were still stuck at G2/M until 8 hour post-drug treatment. “Asynchr” denotes asynchronous cells. 0 hour is the end of nocodazole treatment (i.e., 18 hours in 50 ng/ml nocodazole). At 0 hour, cells were released into complete medium in the absence (control) or presence of 5 μM VR-23 for 2, 4, or 8 hours as indicated. […] Extracts prepared from HeLa S3 cells treated with VR-23 in early-S phase (0 hour post double thymidine treatment), G2/M (arrested by nocodazole), or late G1 (6 hour post nocodazole) were subjected to Western blotting with anti-PARP1 antibody to detect proteins associated with apoptotic activities.
# Evaluation of apoptosis in VR-23 treated and untreated control cells (FIG. 8). Treatment of cells in late G1 with VR-23 delayed their progression into S phase. HeLa S3 cells arrested in G2-M phase by nocodazole (50 ng/ml, 18 hours) were incubated in drug-free complete medium for 2, 4 or 6 hours (numbers in brackets), followed by incubation for 2 or 6 hours (+h) in the absence (control) (FIG. 8A) or presence (FIG. 8B) of 10 μM VR-23. […] By (6)+6 hours, most of the control cells already progressed into S phase, but VR-23-treated cells were still in G1 (long and short arrows, respectively). […] Under normal growth conditions, cyclin E expression peaks in late G1 and rapidly levels off as a cell enters S phase, at which time cyclin A expression rapidly increases. […]
# MCF10A non-cancer cells [4] = conditions: 8 μM VR-23
# [5] = ATH490 mice; 30 mg/kg
# [6] = Serum ALT liver toxicity, CD-1 mice; conditions: up to 20 mg/kg
smiles,measurement,setting,value
"O=[N+]([O-])c1ccc(S(=O)(=O)N2CCN(c3ccnc4cc(Cl)ccc34)CC2)c([N+](=O)[O-])c1 [Compound 1, 7-Chloro-4-(4-(2,4-dinitrophenylsulfonyl)piperazin-1-yl)quinoline]",Effectiveness relative to temozolomide on U87MG brain cancer cells,U87MG brain cancer cells,at least 20 times
same,Colony counts,"MCF10A non-cancer cells [1]; 0.5-8.0 μM VR-23, 14 days",colony counts were not substantially different
same,Toxicity to MCF10A non-cancer cells,MCF10A non-cancer cells [1]; up to 8 μM,not notably toxic
same,"Inhibitory effect, MDA-MB231 vs 184B5",[2],2.6 times
same,"Inhibitory effect, MDA-MB468 vs MCF10A",[2],17.6 times
same,Proteasome inhibition in 184B5 cells,[3],not pronounced
same,Cells with multiple microtubule organization centers,MCF7 cells,~33%
same,Cell death of cells arrested at G2-M by nocodazole,"HeLa S3 cells; 5 μM VR-23, within 4 hours",caused massive cell death
same,Cell cycle progression from late G1 to S phase,"HeLa S3 cells; 10 μM VR-23, (6)+6 hours post nocodazole",slowed down cell cycle progression from late G1 to S phase
same,Cells in G1,HeLa S3 cells; 10 μM VR-23 for 6 hours from 6 hours post-DT,~30%
same,Apoptosis in MCF10A,MCF10A non-cancer cells [4],did not induce any apoptosis
same,Liver toxicity by ratio of ALT and AST,[5],did not cause any significant liver toxicity
same,Liver toxicity by level of serum ALT,[6],did not cause any significant liver toxicity
